From article PMC5700166
The entries are a selection whose mix differs from that of the whole data set. The list includes weakly bound sequences.

Target: T1, GST-Dm-Relish (UniProt Q94527)
T1 sequence: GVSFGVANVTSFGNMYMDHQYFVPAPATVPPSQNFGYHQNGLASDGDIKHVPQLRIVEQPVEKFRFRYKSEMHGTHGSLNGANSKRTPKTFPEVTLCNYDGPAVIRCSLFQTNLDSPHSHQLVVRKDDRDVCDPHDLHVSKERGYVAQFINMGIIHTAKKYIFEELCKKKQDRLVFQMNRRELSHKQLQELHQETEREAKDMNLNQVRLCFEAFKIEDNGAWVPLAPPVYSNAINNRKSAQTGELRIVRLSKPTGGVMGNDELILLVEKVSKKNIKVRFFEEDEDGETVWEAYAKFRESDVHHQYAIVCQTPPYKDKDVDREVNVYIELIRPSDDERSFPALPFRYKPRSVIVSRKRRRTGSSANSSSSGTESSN
Assay: protein-binding microarray (PBM)
Details: PBM: ~300 nM protein, 6 mM HEPES pH 7.8, 80 mM KCl, 0.5 mM EDTA, 0.5 mM EGTA, 6% glycerol, 35 ng/ul poly-dIdC, 1% milk, 1 h, room temperature; Ap Aiptasia and Nv Nematostella (sea anemones) / Co Capsaspora / Aq Amphimedon (sponge) / Dm Drosophila / Hu human; RHD is the Rel homology domain; high values mean tight binding; most listed sequences are background and not binding sites; double strand, one strand shown

| Sequence | binding signal |
| --- | --- |
| CCGATTAACATCACGATAGCTATTGATGTTAATCGGGTCTTGATTCGCTTGACGCTGCTG | -0.757 z-score |
| CCGATTAACATCACGTACTACAATGATGTTAATCGGGTCTTGATTCGCTTGACGCTGCTG | 0.0356 z-score |
| CCGATTAACATCAGATTCTCGTGTGATGTTAATCGGGTCTTGATTCGCTTGACGCTGCTG | 0.29 z-score |
| CCGATTAACATCAGAGCGGGTTTTGATGTTAATCGGGTCTTGATTCGCTTGACGCTGCTG | 0.291 z-score |
| CCGATTAACATCAAGTTGTACAATGATGTTAATCGGGTCTTGATTCGCTTGACGCTGCTG | -0.36 z-score |
| CCGATTAACATCAGTTGCTCTCATGATGTTAATCGGGTCTTGATTCGCTTGACGCTGCTG | -0.766 z-score |
| CCGATTAACATCAGAAAATTTCATGATGTTAATCGGGTCTTGATTCGCTTGACGCTGCTG | 0.57 z-score |
| CCGATTAACATCATTACGCCACGTGATGTTAATCGGGTCTTGATTCGCTTGACGCTGCTG | -0.42 z-score |
| CCGATTAACATCATACTCCTTGATGATGTTAATCGGGTCTTGATTCGCTTGACGCTGCTG | -0.396 z-score |
| CCGATTAACATCATCTCGACCATTGATGTTAATCGGGTCTTGATTCGCTTGACGCTGCTG | -1.01 z-score |
| CCGATTAACATCAAAATTCCTACTGATGTTAATCGGGTCTTGATTCGCTTGACGCTGCTG | 0.501 z-score |
| CCGATTAACATCAGCGCAGCGGCTGATGTTAATCGGGTCTTGATTCGCTTGACGCTGCTG | -0.96 z-score |
| CCGATTAACATCATACTAGTTCCTGATGTTAATCGGGTCTTGATTCGCTTGACGCTGCTG | -0.364 z-score |
| CCGATTAACATCATTAAGAAAGCTGATGTTAATCGGGTCTTGATTCGCTTGACGCTGCTG | -0.505 z-score |
| CCGATTAACATCAGGGTTGCAACTGATGTTAATCGGGTCTTGATTCGCTTGACGCTGCTG | -0.208 z-score |
| CCGATTAACATCACCATCCAACTTGATGTTAATCGGGTCTTGATTCGCTTGACGCTGCTG | 0.301 z-score |
| CCGATTAACATCAAGCGGTATTATGATGTTAATCGGGTCTTGATTCGCTTGACGCTGCTG | -0.262 z-score |
| CCGATTAACATCACGGGTCGGATTGATGTTAATCGGGTCTTGATTCGCTTGACGCTGCTG | 0.254 z-score |
| CCGATTAACATCACCTGAACTATTGATGTTAATCGGGTCTTGATTCGCTTGACGCTGCTG | 0.149 z-score |
| CCGATTAACATCAATTGACGATTTGATGTTAATCGGGTCTTGATTCGCTTGACGCTGCTG | -0.278 z-score |

| Sequence | binding signal |
| --- | --- |
| CCGATTAACATCACGGATTCTCCTGATGTTAATCGGGTCTTGATTCGCTTGACGCTGCTG | -0.248 z-score |
| CCGATTAACATCAGCGAATTTCCTGATGTTAATCGGGTCTTGATTCGCTTGACGCTGCTG | 0.174 z-score |
| CCGATTAACATCAAATAGGCTCATGATGTTAATCGGGTCTTGATTCGCTTGACGCTGCTG | -1.07 z-score |
| CCGATTAACATCACATACCTACCTGATGTTAATCGGGTCTTGATTCGCTTGACGCTGCTG | 0.771 z-score |
| CCGATTAACATCAATTCATCAGTTGATGTTAATCGGGTCTTGATTCGCTTGACGCTGCTG | -0.758 z-score |
| CCGATTAACATCAGCAACTGGCCTGATGTTAATCGGGTCTTGATTCGCTTGACGCTGCTG | -0.627 z-score |
| CCGATTAACATCATCGCGCCTTCTGATGTTAATCGGGTCTTGATTCGCTTGACGCTGCTG | -0.267 z-score |
| CCGATTAACATCAAGACCACTGTTGATGTTAATCGGGTCTTGATTCGCTTGACGCTGCTG | 0.197 z-score |
| CCGATTAACATCAAGGCAAAGGCTGATGTTAATCGGGTCTTGATTCGCTTGACGCTGCTG | -0.924 z-score |
| CCGATTAACATCAGCCATGGTGATGATGTTAATCGGGTCTTGATTCGCTTGACGCTGCTG | -0.435 z-score |
| CCGATTAACATCAGCTAAGCATGTGATGTTAATCGGGTCTTGATTCGCTTGACGCTGCTG | -0.328 z-score |
| CCGATTAACATCAAAAAATCCCCTGATGTTAATCGGGTCTTGATTCGCTTGACGCTGCTG | 10.7 z-score |
| CCGATTAACATCACGTAACAATATGATGTTAATCGGGTCTTGATTCGCTTGACGCTGCTG | 0.0688 z-score |
| CCGATTAACATCACAGAAATTCCTGATGTTAATCGGGTCTTGATTCGCTTGACGCTGCTG | 0.974 z-score |
| CCGATTAACATCACGCGATCATATGATGTTAATCGGGTCTTGATTCGCTTGACGCTGCTG | -0.195 z-score |
| CCGATTAACATCACGGGCATTCCTGATGTTAATCGGGTCTTGATTCGCTTGACGCTGCTG | 2.37 z-score |
| CCGATTAACATCATGCAAGAACTTGATGTTAATCGGGTCTTGATTCGCTTGACGCTGCTG | -0.302 z-score |
| CCGATTAACATCAGCTCTGTACATGATGTTAATCGGGTCTTGATTCGCTTGACGCTGCTG | 0.0134 z-score |
| CCGATTAACATCAGTTCACGCCGTGATGTTAATCGGGTCTTGATTCGCTTGACGCTGCTG | -0.301 z-score |
